Publication PMC10502657
These are yes or no findings as the source states them, for the method shown. In cells and extracts the contact can be indirect. Some entries that bind do so weakly or less than the wild type. Tags and fused reporters may be left off the sequences shown.

Legend:
Flag–MLF2 = target: T1, Flag–MLF2 (UniProt Q15773); assay: co-IP; HEK293T cells transfected with tagged proteins, lysed 24 h later (MG132 20 µM for 6 h before lysis); IP buffer 50 mM Tris-HCl pH 7.4, 150 mM NaCl, 1.5 mM MgCl2, 1 mM EDTA, 0.5% NP-40, 0.5% Triton X-100, 10% glycerol; western blot
T1 sequence: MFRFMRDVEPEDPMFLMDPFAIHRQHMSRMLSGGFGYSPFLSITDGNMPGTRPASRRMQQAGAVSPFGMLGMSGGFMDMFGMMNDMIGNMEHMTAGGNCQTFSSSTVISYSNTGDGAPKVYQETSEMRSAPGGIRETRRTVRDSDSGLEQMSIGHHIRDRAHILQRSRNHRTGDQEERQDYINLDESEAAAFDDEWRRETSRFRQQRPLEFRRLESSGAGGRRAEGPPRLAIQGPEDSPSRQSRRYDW

[1] = target: T2, MLF2, exogenously expressed (tag not shown) (UniProt Q15773); assay: co-IP; immunoprecipitation assays with deletion mutants of MLF2 and of USP7 (Figure S3C–E); cells and tags not shown
T2 sequence: T1 sequence

binding (Flag–MLF2)	binding [1]	Substance
binds		GFP–p53 (from UniProt P04637 1-393)
	binds	USP7 (aa 506–1102) (from UniProt Q93009 506-1102) (domain or fragment)
	binds	USP7 (aa 1–208) (from UniProt Q93009 1-208) (domain or fragment)
binds		HA–USP7 (from UniProt Q93009 1-1102) (enzyme)
